According to PMC4300205, “Human Cerberus Prevents Nodal-Receptor Binding, Inhibits Nodal Signaling, and Suppresses Nodal-Mediated Phenotypes” (PLoS ONE, 2015):

What was measured:
[1] = biological target: T1, recombinant human Nodal (human, UniProt Q96S42 238-347); assay: SPR; Biacore 2000; 200-300 RU of Fc fusion captured by anti-human IgG (Fc) antibody on a CM5 chip; concentration series of ligand injected at 50 ul/min; 25 C; HBS-EPS (0.01 M HEPES, 0.5 M NaCl, 3 mM EDTA, 0.005% Tween 20, pH 7.4); 1:1 Langmuir model with mass transport; Kd = kd/ka; details: both partners purified
T1 construct: Nodal, human, recombinant (RnD Systems); source: bought: RnD Systems
T1 sequence (looked up): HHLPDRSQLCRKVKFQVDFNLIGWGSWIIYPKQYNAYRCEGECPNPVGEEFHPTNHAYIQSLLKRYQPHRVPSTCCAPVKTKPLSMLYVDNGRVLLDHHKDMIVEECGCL

[2] = biological target: T2, Recombinant Activin A (human, UniProt P08476 311-426); assay: as above; details: both partners purified
T2 construct: Activin A (inhibin beta A chain), recombinant; source: bought: R&D Biosystems or Life Technologies; also produced in-house
T2 sequence (looked up): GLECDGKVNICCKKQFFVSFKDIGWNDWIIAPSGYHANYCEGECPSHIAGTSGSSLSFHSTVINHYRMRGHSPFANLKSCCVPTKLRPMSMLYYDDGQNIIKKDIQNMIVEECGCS

Kd [1]: 100 nM
koff [1]: 0.002 s⁻¹
kon [1]: 20000 M⁻¹ s⁻¹
Kd [2]: 0.023 nM
koff [2]: 2.5e-05 s⁻¹
kon [2]: 1.1e+06 M⁻¹ s⁻¹
B1: human ACTRIIA-hIgg-Fc (Fc fusion)
chain: not shown
notes: signal peptide in the construct; extracellular domain of human ActRIIA ([…]), joined to human IgG1 Fc by a 22 amino acid linker with a TEV site, a glycine/serine rich region and a FLAG-tag; Synthetic gene from GeneArt; also called ACTRIIA-Fc; source: CHO cells, purified from conditioned medium (Protein A, SEC)
